Assay results: the supplement of paper PMC10126150
Sequences with one replicate were seen in a single cluster, so their values are uncertain.

System: ATP
Test: switch fluorescence ratio, 500 uM ATP over buffer (Cy3 cluster intensity, sum of 5 cycles each) (fold (ratio)); higher = stronger signal-on switching upon ATP binding; sequences stand for … in TCGTCGGCAGCGTCAGATGTGTATAAGAGACAGTTTTTTTTTTTTTTTTTTTTTTTTT…TC
Conditions: aptamer strand: ATP DNA aptamer (quencher-CACCTGGGGGAGTATTGCGGAGGAAGG + anchor), 100 nM annealed; ATP concentration: 500 uM; one replicate
How it was run: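 Values give the fluorescence ratio for each switch-domain sequence, averaged from per-cluster ratios of summed target-cycle to summed buffer-cycle Cy3 intensity. The Cy3-labelled switching-strand clusters sat on a modified Illumina MiSeq flow-cell, were annealed to 100 nM quencher-labelled ATP aptamer, and were imaged in selection buffer, then after 15 min with 500 uM ATP at 22 °C. Five cycles ran with NaOH stripping and re-annealing between them, and clusters outside 100-1000 RFU were excluded.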
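Further: ATP exposure 15 min at 22 °C before imaging.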

TATGAATCTC was tested, and the switch fluorescence ratio was 0.989.

CCTGTTCTGG was tested, and the switch fluorescence ratio was 0.972.

With GTGGAAAGTT the switch fluorescence ratio was 0.998.

In the case of CCGATATCCA, the switch fluorescence ratio is reported as 0.997.

With GGTATACGCG the switch fluorescence ratio was 0.996.

For ATGCGCTAGG, the switch fluorescence ratio was 1.02.

TGTGGCTTTC showed a switch fluorescence ratio of 1.

GGGATAATGC gave a switch fluorescence ratio of 0.981.

Sequence CACTGATTTT has a switch fluorescence ratio of 1.01.

TTATTGCCCG was tested, and the switch fluorescence ratio was 1.09.

Work on TGGGAACCTT yielded a switch fluorescence ratio of 1.29.

Work on TAGCTATTAA yielded a switch fluorescence ratio of 1.05.

Sequence TTAAGAGCTT has a switch fluorescence ratio of 1.01.

In the case of CGGGAAGCTA, the switch fluorescence ratio is reported as 1.01.

For CGATCACGTG, the switch fluorescence ratio was 1.02.

Sequence CTTGGTGTCC has a switch fluorescence ratio of 1.02.

TAGGCGAGT gave a switch fluorescence ratio of 0.987.

AGCGAATCGG was tested, and the switch fluorescence ratio was 0.987.

Sequence GGGTCTGATA has a switch fluorescence ratio of 0.96.

Sequence GGTCTCACTC has a switch fluorescence ratio of 1.05.

Sequence CCAACCCTTG has a switch fluorescence ratio of 1.05.

TAGATGGGG gave a switch fluorescence ratio of 1.02.

GAGTCCGGTT gave a switch fluorescence ratio of 1.05.

In the case of AAAGGGCCCG, the switch fluorescence ratio is reported as 1.13.

With GTGGCTACAA the switch fluorescence ratio was 1.02.

Work on CTGTTAGTT yielded a switch fluorescence ratio of 1.02.

Sequence TTAGAACAAA has a switch fluorescence ratio of 1.

Sequence ATCGTGGAAG has a switch fluorescence ratio of 0.995.

Sequence ATTCACAGGA has a switch fluorescence ratio of 1.05.

CTTGAAATGG was tested, and the switch fluorescence ratio was 1.01.

Sequence TTGATTAGCG has a switch fluorescence ratio of 1.01.

TAAAGGATTT was tested, and the switch fluorescence ratio was 0.981.

In the case of TTTCTGGCCA, the switch fluorescence ratio is reported as 1.04.

For GAGTGAACAT, the switch fluorescence ratio was 1.01.

Sequence CGCTCTTCTC has a switch fluorescence ratio of 1.07.

TAGACGGGAG gave a switch fluorescence ratio of 0.942.

In the case of AAGGGAGTGT, the switch fluorescence ratio is reported as 0.992.

In the case of GCTGCTGAAC, the switch fluorescence ratio is reported as 1.13.

TTCAGAGAGC was tested, and the switch fluorescence ratio was 0.999.

TAGGCCTATC showed a switch fluorescence ratio of 0.984.

GCGTGTGACA gave a switch fluorescence ratio of 0.989.

With GTTCGACAGC the switch fluorescence ratio was 1.06.

GGTGTACGTA gave a switch fluorescence ratio of 0.916.

With CCTGACAGC the switch fluorescence ratio was 1.22.

Work on GTTGACTCTG yielded a switch fluorescence ratio of 1.

ACGATAACCT gave a switch fluorescence ratio of 1.87.

With TCTGTTATGC the switch fluorescence ratio was 1.05.

CGAAAACCA gave a switch fluorescence ratio of 1.03.

TTAATATCAC gave a switch fluorescence ratio of 1.02.

For ACGTCGGCTA, the switch fluorescence ratio was 1.05.

With AGAGACCTGC the switch fluorescence ratio was 0.991.

With GTGCGAACGT the switch fluorescence ratio was 0.993.

CCCGTCGCAT was tested, and the switch fluorescence ratio was 2.74.

ACATTTCAAC gave a switch fluorescence ratio of 1.01.

With CGCGAGTCTC the switch fluorescence ratio was 1.31.

With GTTGGTTGAG the switch fluorescence ratio was 0.948.

In the case of ACCACCGCAA, the switch fluorescence ratio is reported as 1.64.

AGACTTAGCG showed a switch fluorescence ratio of 0.928.

In the case of CGGAGCGCTG, the switch fluorescence ratio is reported as 1.01.

TCGGCGCTCT was tested, and the switch fluorescence ratio was 1.06.

With TCACTTATCT the switch fluorescence ratio was 1.

For ACAACTGCTT, the switch fluorescence ratio was 0.99.

AACGAACTTA gave a switch fluorescence ratio of 1.34.

ATTTTTATGC showed a switch fluorescence ratio of 0.959.

With ACGGAACACC the switch fluorescence ratio was 1.29.

With TCTGGGTATC the switch fluorescence ratio was 0.964.

With GCTCTAAAGG the switch fluorescence ratio was 1.04.

TGGGGCATAA showed a switch fluorescence ratio of 3.65.

For CTTGAATCTG, the switch fluorescence ratio was 1.03.

With ATCGCGACGA the switch fluorescence ratio was 0.964.

In the case of CTTGATGCT, the switch fluorescence ratio is reported as 0.978.

In the case of GGTGTACATG, the switch fluorescence ratio is reported as 1.01.

For CCTTAAGTG, the switch fluorescence ratio was 1.02.

Sequence AGACTGCGCG has a switch fluorescence ratio of 1.04.

GATAGCAGTC showed a switch fluorescence ratio of 1.28.

In the case of AATACTGGAG, the switch fluorescence ratio is reported as 1.05.

Work on AAATTATGTA yielded a switch fluorescence ratio of 0.948.

With CTCTACATCC the switch fluorescence ratio was 1.07.

With TTTTTCCAAT the switch fluorescence ratio was 1.03.

Sequence TTGGCCCGG has a switch fluorescence ratio of 1.01.

In the case of GGAATCGGGT, the switch fluorescence ratio is reported as 0.992.

With GTAAACCGGG the switch fluorescence ratio was 1.01.

With ACAAAAAGT the switch fluorescence ratio was 0.984.

In the case of TGTAAGGCTA, the switch fluorescence ratio is reported as 1.01.

GAACTCTTAT showed a switch fluorescence ratio of 0.981.
